Data reported in ChEMBL document CHEMBL1156829.
Whole data set: some 5,400 compounds, median “IFI” near 2, cut for the highest 2% near 22. This is one part of the list.

Assay: NOVARTIS: Inhibition Frequency Index (IFI) - the number of HTS assays where a compound showed > 50% inhibition/induction, expressed as a percentage of the number of assays in which the compound was tested.
Format: functional

| Structure (SMILES) | IFI [%] |
| --- | --- |
| C=CCc1cc(-c2cc(CC=C)c(O)c(CN(CC)CC)c2)cc(CN(CC)CC)c1O | 2.35 |
| O=C(C(Cc1c[nH]c2ccccc12)NS(=O)(=O)c1ccc(Cl)cc1)N1CCCCC1 (centres undefined) | 0 |
| N#Cc1sccc1NS(=O)(=O)c1ccc(Cl)cc1 | 0.848 |
| CCc1c(C)c(C#N)c2nc3ccccc3n2c1Nc1ccc(C)c(Cl)c1 | 0 |
| O=C(NC(CN1CCCC1)c1ccccc1)C1CCN(S(=O)(=O)c2ccc(Cl)cc2)CC1 (centres undefined) | 1.94 |
| O=C(NCCCCNc1ccnc2cc(Cl)ccc12)C1CCCC1 | 0.917 |
| COCCCNC(=O)/C=C/c1ccc(C(C)C)cc1 | 0 |
| COc1ccc(C2CC(=O)C3=C(C2)NC(C)=C(C(=O)OC2CCCC2)C3c2ccc(Cl)cc2)cc1 (centres undefined) | 4.71 |
| O=C(CC1OC(=O)c2ccccc21)c1ccc(Cl)cc1 (centres undefined) | 5.33 |
| O=C(C1CC1)N1CCOc2c(cc(-c3csc4ccccc34)cc2OCCc2ccccn2)C1 | 0.952 |
| COc1cc(CNCCCn2ccnc2)ccc1OCc1ccccc1 | 0.935 |
| CCC(C)NC(=O)c1c[nH]c2ccc(S(=O)(=O)N(C)c3cc(C)ccc3C)cc2c1=O (centres undefined) | 7.69 |
| CCCCCCCC[n+]1c(C)n(CC)c2ccc(Cl)cc21 | 7.69 |
| Oc1ccccc1CNC(Cc1ccccc1)C(O)(c1ccccc1)c1ccccc1 (centres undefined) | 0 |
| Cc1cnc(CNc2cc(-c3ccccn3)nc(-c3ccccn3)n2)nc1 | 11.8 |
| COc1ccc(C[n+]2cc(-c3ccc(Cl)cc3)n3ccccc32)cc1 | 2.22 |
| CCCNC(=O)c1ccc(OC2CCN(CC3CCCCC3)CC2)c(Cl)c1 | 4.17 |
| CCOC(=O)C1=C(C)NC2=C(C(=O)CC(c3ccc(OC)c(OC)c3)C2)C1c1ccc(Cl)cc1Cl (centres undefined) | 8.23 |
| CCCC(=O)N1CCN(c2nc(Cc3ccccc3)c3c(c2C#N)CC(C)(C)OC3)CC1 | 4.54 |
| CCOC(=O)C1=C(C)N/C(=C\c2cc(C)n(-c3ccc(C)cc3)c2C)C1=O | 0 |
| CCN1/C(=C/c2sc3ccc(OC)cc3[n+]2CC)C=Cc2cc(C)ccc21 | 23.1 |
| CN(C)c1ccc(C=CC=Cc2cc[n+](C)cc2)cc1 | 12.4 |
| CCOC(=O)c1ccc2nc3c(nc2c1)C(=O)c1ccccc1C3=O | 21.9 |
| CCn1c(SCCCCNC(=O)c2cc([N+](=O)[O-])cc([N+](=O)[O-])c2)nc(-c2ccccc2)c1-c1ccccc1 | 1.85 |
| CC(=O)N1CCc2cc(Br)cc(S(=O)(=O)N(CC(C)C)CC(C)C)c21 | 0 |

| Structure (SMILES) | IFI [%] |
| --- | --- |
| CC(C)CNC(=O)c1cnc(NCCCN2CCCCC2C)nc1NCCc1ccccc1 (centres undefined) | 3.74 |
| CC(=O)N/C(=C\c1ccc(OC(F)F)cc1)C(=O)O | 1.01 |
| N=C(NN=Cc1cccc([N+](=O)[O-])c1)SC1CC(=O)N(c2cc(Cl)ccc2Cl)C1=O (centres undefined) | 0 |
| COc1cc(C(=O)NC(c2cccs2)c2cc(Cl)c3cccnc3c2O)cc(OC)c1OC (centres undefined) | 0 |
| Brc1ccc2[nH]c3c(NCCCN4CCOCC4)ncnc3c2c1 | 7.84 |
| Oc1ccc(-c2cncnc2)cc1CNC1CCN(Cc2ccccc2)CC1 | 1.01 |
| Cc1cccc(NC(=O)Nc2cccnc2)c1NC(=O)Nc1cccnc1 | 0 |
| O=C(NCc1ccccc1C(F)(F)F)C1CC(O)CN1C(=O)Nc1ccccc1 (centres undefined) | 0 |
| O=C(NN=Cc1cccc(Cl)c1)C1COc2ccccc2O1 (centres undefined) | 0 |
| COc1ccc(S(=O)(=O)NCCCCNc2ccnc3cc(Cl)ccc23)cc1 | 3.74 |
| CN(CCCNc1ccnc2cc(Cl)ccc12)C(=O)C1C[C@H]1c1ccccc1 (some centres undefined) | 8.49 |
| Cc1cccc(-n2nc3c(c2NC(=O)c2ccc4c(c2)OCO4)CS(=O)(=O)C3)c1C | 3.45 |
| COc1ccc(C2C(C(=O)Nc3cc(Cl)c(OC)cc3OC)c3ccccc3C(=O)N2C)cc1 (centres undefined) | 0 |
| Cc1noc(-c2ccc(O)cc2O)c1-c1ccc2c(c1)OCCCO2 | 3.57 |
| CCc1nnc2n1N(C(C)=O)C(c1ccc(Cl)c(Cl)c1)=C(C(C)=O)S2 | 0 |
| S=C(NC1CCCCC1)NC1CC2CCC(C1)N2Cc1ccccc1 (centres undefined) | 1.27 |
| Cc1cc(Nc2ccc(Cl)cc2)nc(NCc2ccccc2)n1 | 4.62 |
| CCN(C(=O)CSc1nc(-c2ccc(C(C)C)cc2)no1)c1cccc(C)c1 | 0 |
| O=C(Cc1ccsc1)N1CCOc2c(cc(-c3csc4ccccc34)cc2OCCc2ccccn2)C1 | 1.94 |
| CC(C)CNc1nc(NCCCN2CCCCC2C)ncc1C(=O)NCCc1ccccc1 (centres undefined) | 3.85 |
| CCOC(=O)c1c(C)oc2c1C(=O)c1ccccc1C2=O | 3.17 |
| COc1cc(OC)c(NC(=O)C2c3ccccc3C(=O)N(C)C2c2ccc(OC)c(OC)c2)cc1Cl (centres undefined) | 0 |
| CCNC1=C(C(=O)c2ccccc2)N(CC(=O)c2ccc(Br)cc2)S(=O)(=O)c2ccccc21 | 7.69 |
| CC(=O)N1CCNC1=Nc1c(Cl)nc(C)nc1Cl | 0 |
| O=[N+]([O-])c1ccc(NN=Cc2cccs2)c(S(=O)(=O)N2CCCCCC2)c1 | 0 |

| Structure (SMILES) | IFI [%] |
| --- | --- |
| O=C(CN1CCC(NC(=O)c2cccc(F)c2)CC1)NC1CC1 | 1.59 |
| COc1cc2c(cc1OC)C(COc1ccc(F)cc1)N(C(=O)c1ccc(OC(C)C)cc1)CC2 (centres undefined) | 0 |
| CCn1c(/C=C/N(C)c2ccccc2)[n+](CC)c2cc(Cl)ccc21 | 6.25 |
| CN(C)c1ccc(N=C2NC(=O)/C(=C/c3ccc(Cl)cc3)S2)cc1 | 0 |
| Cn1cc(/C=C/c2cc[n+](C)cc2)c2ccccc21 | 5.56 |
| O=C1N(Cc2cc3ccccc3s2)CC2CN(Cc3ccoc3)CCN12 (centres undefined) | 1.41 |
| CCOc1ccccc1CN1CCCC(C(=O)N2CCCCCC2)C1 (centres undefined) | 0 |
| COc1cc(OC)cc(C(=O)N(C)CCCNc2ccnc3cc(Cl)ccc23)c1 | 1.87 |
| CC1CCN(C2=C(NC3CCCC3)C(=O)c3ccccc3C2=O)CC1 | 14.3 |
| COC(=O)C1=C(C)NC2=C(C(=O)CC(c3ccc(OC)c(OC)c3)C2)C1c1ccccc1Br (centres undefined) | 4.82 |
| CCOC(=O)c1ccc(N2CCN(c3cc(C)ccc3C)CC2)c(NC(=O)Nc2ccc(Cl)cc2)c1 | 0 |
| O=C1N(Cc2cc3ccccc3s2)CC2CN(Cc3ccsc3)CCN12 (centres undefined) | 1.39 |
| Cc1ccc(NC(=O)C2c3ccccc3C(=O)N(CC(C)C)C2c2cccs2)c(Cl)c1 (centres undefined) | 3.23 |
| CC(C)CN(C(C(=O)NC(CN1CCCC1)c1ccccc1)c1ccccc1)S(=O)(=O)c1ccccn1 (centres undefined) | 1.96 |
| CC1=C(CO)C(=O)O[C@@H]([C@@H](C)[C@H]2CC[C@H]3[C@@H]4C[C@H]5O[C@]56[C@@H](O)C=CC(=O)[C@]6(C)C4CC[C@]23C)C1 (some centres undefined) | 32.1 |
| CCOC(=O)C1CCN(C(c2cc3cc(OC)c(OC)cc3[nH]c2=O)c2nnnn2C(C)(C)C)CC1 (centres undefined) | 5.21 |
| C=CCn1cc(C=NNc2nc3ccccc3[nH]2)c2ccccc21 | 15.4 |
| COc1ccc2ccccc2c1C1CC(=O)N2CN(Cc3ccco3)CSC2=C1C#N (centres undefined) | 0 |
| CCOC(=O)c1c(C)[nH]c2c1cc(O)c1ccccc12 | 3.11 |
| COc1cccc(-c2ccc(O)c(CN(C)C3CCCCC3)c2)n1 | 2.63 |
| N#Cc1c(N)nc2sc(C(=O)Nc3ccc(Br)cc3)c(N)c2c1-c1ccccc1 | 1.51 |
| CCC(CC)CN1CCC(O)(c2ccc3oc(C(=O)Nc4ccc5c(c4)OCO5)cc3c2)CC1 | 3.48 |
| COc1ccc(C)cc1-n1c(-c2ccc(Cl)cc2)cc2c1CC(C)(C)CC2=O | 0 |
| S=C(NN=CC=NNC(=S)Nc1ccccc1)Nc1ccccc1 | 14.3 |
| CC(=O)OCC(=O)[C@@]1(O)CCC2C3CCC4=CC(=O)CC[C@]4(C)C3[C@@H](O)C[C@@]21C (some centres undefined) | 0.769 |

| Structure (SMILES) | IFI [%] |
| --- | --- |
| O=C1CN(C(=O)CCC2CCCC2)C(c2ccc(F)cc2)c2cc(Cl)ccc2N1 (centres undefined) | 2.94 |
| CC(=O)Nc1ccc(NS(=O)(=O)c2cc([N+](=O)[O-])ccc2Cl)cc1 | 0 |
| O=C(c1ccc2c(c1)OCO2)N1CCOC(c2ccc(Cl)cc2)C1 (centres undefined) | 1.37 |
| CC[n+]1c(/C=C/C=C2\N(C)c3ccccc3C2(C)C)n(Cc2ccccc2)c2ccccc21 | 32.6 |
| OCC[n+]1c2ccccc2nc2ccc(N3CCOCC3)cc21 | 0 |
| CC1(C)CC(=O)C(=CNc2nc3c(s2)CCc2c-3cnn2-c2ccccc2)C(=O)C1 | 0 |
| S=P(OCC1C(COP(=S)(c2ccccc2)c2ccccc2)C1(Cl)Cl)(c1ccccc1)c1ccccc1 (centres undefined) | 2.78 |
| OCCNc1nc(Nc2ccccc2O)nc2ccccc12 | 0 |
| COc1cc2cc(C(=O)Nc3ccccc3)c(N)nc2cc1OC | 4.48 |
| Cn1cnc(S(=O)(=O)Nc2ccccc2C(=O)NCC2CC2)c1 | 3.36 |
| COC(=O)c1ccccc1NC(=O)COc1cccc(OC)c1 | 0 |
| CC(C)CCNc1ncc(C(=O)NCC(C)C)c(NCCc2ccccc2)n1 | 2.91 |
| COc1ccc2nc(Nc3nc(-c4ccccn4)cs3)sc2c1 | 14.3 |
| COc1ccc(C(=O)N2C(C(=O)Nc3ccc(C)cc3)CSC2c2ccc(C(C)(C)C)cc2)cc1 (centres undefined) | 2.2 |
| Cc1ccc(C)n1-c1ccc(C(=O)N2CCC(C)CC2)cc1 | 0 |
| CCOC(=O)C(C)Oc1cccc2c(=O)n(CC(=O)Nc3ccc(OC(F)(F)F)cc3)ccc12 (centres undefined) | 0 |
| COc1ccc(C2=C(c3ccc(OC)cc3)C3(c4ccccc4)C(=O)C2(c2ccccc2)C2C(=O)N(c4ccc(C)cc4)C(=O)C23)cc1 (centres undefined) | 0 |
| CN(C)CCN1CCN(c2cncc(-c3cccnc3)n2)CC1 | 0 |
| CCN1/C(=C/c2ccc3cc(C)ccc3[n+]2C)Sc2ccc3ccsc3c21 | 10.6 |
| S=C(NN=Cc1ccccn1)NC1CC2CC1C1C=CCC21 (centres undefined) | 32.5 |
| O=C(NCc1ccccc1)c1cnc(NCCC(c2ccccc2)c2ccccc2)nc1NC1CC1 | 5.83 |
| CCCCN(C(=O)CCC(=O)Nc1cc(C)on1)C(C(=O)NC1CCCC1)c1ccc(C)o1 (centres undefined) | 1.82 |
| CCCNc1nc(OC(C(F)(F)F)C(F)(F)F)nc(OC(C(F)(F)F)C(F)(F)F)n1 | 0 |
| COc1ccc(S(=O)(=O)NCC2CCC(C(=O)NCC(OC)OC)CC2)cc1 (centres undefined) | 2.17 |
